The supplement of paper PMC11417369
± gives the standard deviation of the averaged measurements. The list shows a part of the results.

System: PfAP2-G AP2 domain (GST-tagged)
Test: gcPBM binding intensity (ln(normalized median fluorescence intensity)); higher = stronger DNA binding
How it was run: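 After 1 h on an Agilent 4 × 180k array of primer-extended double-stranded 36-bp intergenic genomic probes and negative controls, bound GST-tagged P. falciparum DNA-binding domains were detected with Alexa488 anti-GST antibody and scanned at 488 nm. The domains had been expressed in E. coli, and binding took place in 1× PBS with 1% milk, 0.2 mg/ml BSA, 0.5% salmon testes DNA and 0.03% Triton X-100. Binding intensity is the highest Masliner-normalised natural-log median intensity across replicate spots of either probe orientation.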

Row | Sequence | gcPBM binding intensity (ln)
1 | TATATAATATATTAATGTACGTTATATGTATTCCTT [XGTACX_site6140] | 11.2 ± 0.81
2 | CTTTTTTTTTAAATATCACACACATATAATATATTC [CACACA_site9222] | 9.875 ± 0.049
3 | TAATTCATCATATGCACACACAATACCAAAATGTGC [CACACA_site191] | 10.2 ± 0.15
4 | TACAGATATTCATATAAACACACATACAAATTATGT [CACACA_site7929] | 9.89 ± 0.11
5 | AGTGTATTTTTATGTTGTACATGTAATATTTTTGAT [XGTACX_site541] | 11.3 ± 0.75
6 | TATGTGGCACAAAAGGGTACATATAATTTATACAGG [XGTACX_site5499] | 11.3 ± 0.52
7 | TTTCTAAACCGGTACAGTACATATAAAAATAGAATA [XGTACX_site6662] | 11.4 ± 0.91
8 | AAAGGACAAAAAAATGCATGCCGTTAAATTATGTAC [TGCATGCA_site512] | 10.7 ± 0.27
9 | AAACAGAATGCATATACACACATACAAAAAAGTGCA [CACACA_site6591] | 10.2 ± 0.2
10 | TGTGTACCGATATTAAGTTTAACGTTATAAAAATAT [CACACA_negctrl_site1547] | 11.2 ± 0.94
11 | TGAACATGTTAAAATAAACACACAGCTAAGGTTTTT [CACACA_site7934] | 9.8 ± 0.042
12 | TATCATATAAATACATGTACATATTTGGAAAATAAT [XGTACX_site5373] | 11.2 ± 0.73
13 | ATATATATATTAACAATACACACGTGTATACCTTAT [CACACA_site2217] | 10.38 ± 0.078
14 | TAAAAAAAAATAAATACATGCATATAATACATTATA [TGCATGCA_site518] | 9.48 ± 0.14
15 | TAATGAGGAAAAAGTGTGTTAAGATTTTATAATTTA [GTGCAC_negctrl_site608] | 9.71 ± 0.085
16 | CTTAGAGTATTTAAATGTACACGTTTGTATATGTAT [XGTACX_site1767] | 11.3 ± 0.79
17 | TAGTAAATAACAAAAGGAAAAATTAATGAGGCAAAA [TGCATGCA_negctrl_site526] | 9.945 ± 0.021
18 | CATATACACGAACACACACACATATATATATATATA [CACACA_site4437] | 10.5 ± 0.68
19 | CATCATAGCATTCCTCGTACAAATATAAACATATCA [XGTACX_site2711] | 10.8 ± 0.59
20 | ATGTTTTGTAAAATGATTAAATATTAAGATTCAATA [CACACA_negctrl_site1743] | 9.645 ± 0.021
21 | ATAAATAAATACATATGTACATATATATATATATAT [XGTACX_site7145] | 11.1 ± 0.57
22 | AAATTATATCCCCTTTGTACTTACAGATCTTTATAC [XGTACX_site8163] | 11.2 ± 0.76

Row | Sequence | gcPBM binding intensity (ln)
23 | TCAGTTAATGTATATGTACACACGGGGTGTATATAT [CACACA_site9103] | 11.2 ± 0.73
24 | ATATATATATTAAGGGGTACGTAAAAAATTGGGAAG [XGTACX_site7322] | 11.5 ± 1
25 | CCCAATAATTAAACAACACACATATATATATGTAAT [CACACA_site3084] | 9.795 ± 0.007
26 | TACATATTTTTTATGTGTACATATTTTTTATGTGTG [XGTACX_site444] | 11.5 ± 0.68
27 | TTCTTTTTTCTTTATGGTACGTGTAATATATATCAA [XGTACX_site7960] | 11.2 ± 0.69
28 | CTTTATTTTTTATACACACACAATATGTATAAATAT [CACACA_site7638] | 10.2 ± 0.21
29 | ATAAAATACAGATAAACACACATATAAACACCCATA [CACACA_site5381] | 10.4 ± 0.33
30 | TTTTTTTTTCTTTCTCTTTAAATATTAATTAAAAAA [GTGCAC_negctrl_site90] | 9.85 ± 0.27
31 | TTTATAAAATTATTTGCATGTAACAATTATAAATTG [TGCATGCA_site1026] | 9.97 ± 0.042
32 | TAACTATCATGTATTACACACAATATTTATTATAGA [CACACA_site7301] | 9.94 ± 0.16
33 | AATGTGAAATATAAATGTACATAAATATATATATAT [XGTACX_site8710] | 11.2 ± 0.45
34 | AAAATATAAATATATTGTACTGTTATATAATAAAAT [XGTACX_site2132] | 10.5 ± 0.38
35 | AGAGGAGTAAAACAAAACAAAGAGAAATAAACACAC [XGTACX_negctrl_site386] | 10.8 ± 0.62
36 | AATTAATAAATATTATATGTTAATATTTTTTTTGTT [CACACA_negctrl_site1692] | 9.48 ± 0.11
37 | ACTTAATATCGGTACACACACAAGATAAGAATTATG [CACACA_site894] | 11.3 ± 0.75
38 | AAAAAATATAATAATTGTACACATGCACACACAAAT [XGTACX_site1563] | 11.4 ± 0.76
39 | TTTCATATCTTGTCAAGTACATATTTTTATTTTCTT [XGTACX_site2160] | 11 ± 0.58
40 | AATAACACTATTTAACGTACAAAAAAAAAAAAGAAA [XGTACX_site3721] | 11.1 ± 0.84
41 | TTTTTATAAAAATGAACACACACATATATATATATA [CACACA_site9160] | 10.2 ± 0.49
42 | TATAATAAAATATTTTGTACGTATATTTTAATATTT [XGTACX_site2582] | 11.2 ± 0.72
43 | AAAAAAAATAAAAATAGTACCCAAAAAATTATGAAT [XGTACX_site6641] | 11.1 ± 0.73
